Data: the RNAGym collection of RNA variant scans (doi:10.1093/nar/gkz1192)
Read counts are not given, so values of variants with three or more changes are uncertain.

B1: CPEB3 Ribozyme (parent)
chain: UAACAGGGGGCCACAGCAGAAGCGUUCACGUCGCAGCCCCUGUCAGAUUCUGGUGAAUCUGCGAAUUCUGCUGUAUAUCUC

Variants of: B1
Assay: self-cleavage, relative activity (ratio to wild type); higher = more cleavage; in vitro, sequencing
Procedure, shortened: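 After error-prone PCR and barcoding, CPEB3 ribozyme mutant libraries were transcribed with T7 RNA polymerase at 37°C for 5 hours, then given 15 min with DNase I before an EDTA stop, and they cleaved during both steps. Reverse transcription with template switching preceded Illumina sequencing. Relative activity divides a variant's cleaved/total read fraction by the unmutated ribozyme's. At least 5 reads were required per variant, and three batches were averaged.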

Variant | self-cleavage
UAACAGGGGGCCACAGCAGAAGCGUUCACGUCGCUGCCCCUGUCAGAUUCUGGUGAAUCCGCGAAUUCUGCUGUACAUCUC [A35U U60C U76C] | 0.13
UAACAGGGGGCCACAGCAGAAGCGUUCACGUCGCUGCCCCUGUCAGAUUCUGGUGAAUCGGCGAAUUCUGCCGUAUAUCUC [A35U U60G U72C] | 0.13
UAACAGGGGGCCACAGCAGAAGCGUUCACGUCGCUGCCCCUGUCAGAUUCUGGUGAAUCUGCGAAAUCUGCUGUUUAUCUC [A35U U66A A75U] | 0.15
UAACAGGGGGCCACAGCAGAAGCGUUCACGUCGCUGCCCCUGUCAGAUUCUGGUGAAUCUGCGAACUCUGCUGUAUACCUC [A35U U66C U78C] | 0.13
UAACAGGGGGCCACAGCAGAAGCGUUCACGUCGCUGCCCCUGUCAGAUUCUGGUGAAUCUGCGAAUACUGCUGUAUACCUC [A35U U67A U78C] | 0.17
UAACAGGGGGCCACAGCAGAAGCGUUCACGUCGCUGCCCCUGUCAGAUUCUGGUGAAUCUGCGAAUUCCACUGUAUAUCUC [A35U U69C G70A] | 0.18
UAACAGGGGGCCACAGCAGAAGCGUUCACGUCGCUGCCCCUGUCAGAUUCUGGUGAAUCUGCGAAUUCUGCCGUAUAUAUC [A35U U72C C79A] | 1.02
UAACAGGGGGCCACAGCAGAAGCGUUCACGUCGCAACCCCUGUCGGAUACUGGUGUAUCUGCGAAUUCUGCUGUAUAUCUC [G36A A45G U49A A56U] | 0.21
UAACAGGGGGCCACAGCAGAAGCGUUCACGUCGCAACCCCUGUCAGGUUCUGGUGAAUCUGCGAAUUCUGCCGUACAUCUC [G36A A47G U72C U76C] | 0.41
UAACAGGGGGCCACAGCAGAAGCGUUCACGUCGCAACCCCUGUCAGAUUCUGGUGCAUCUGCGGAUUCUGCUGUAUAUCUC [G36A A56C A64G] | 0.15
UAACAGGGGGCCACAGCAGAAGCGUUCACGUCGCAACCCCUGUCAGAUUCUGGUGAAUCUGCGUAUACUGCUGUAUAUCUC [G36A A64U U67A] | 0.18
UAACAGGGGGCCACAGCAGAAGCGUUCACGUCGCAACCACUGUCAGAUUCUGGUGACUCUGCGAAUUCUGCAGUAAGUCUC [G36A C39A A57C U72A U76A A77G] | 0.06
UAACAGGGGGCCACAGCAGAAGCGUUCACGUCGCAACCCUUGUCAGAUUCUGGUGGAUCUGCGAAUUCUGCUGCACAUCUC [G36A C40U A56G U74C U76C] | 0.12
UAACAGGGGGCCACAGCAGAAGCGUUCACGUCGCAACCCCAGUCCGAUACUGGUGAAUCUGCGAAUUCCGCCGUAUAUCUC [G36A U41A A45C U49A U69C U72C] | 0.14
UAACAGGGGGCCACAGCAGAAGCGUUCACGUCGCAACCCCCGUCGGAUUCUGGUGGAUCUGCGAAUUCUGCUGUAUAUCUC [G36A U41C A45G A56G] | 0.09
UAACAGGGGGCCACAGCAGAAGCGUUCACGUCGCAACCCCCGUCAGAUUCUGGUGAAUCUGCGAAUACUGCCGUAUGUCUC [G36A U41C U67A U72C A77G] | 0.2
UAACAGGGGGCCACAGCAGAAGCGUUCACGUCGCAACCCCCGUCAGAUUCUGGUGAAUCUGCGAAUUCUGCUGUAUAUCGC [G36A U41C U80G] | 0.62

Variant | self-cleavage
UAACAGGGGGCCACAGCAGAAGCGUUCACGUCGCAACCCCUGUCAGACUCUGGCGUAUCUGCGAAUUCUGCUGUAUAUCUC [G36A U48C U54C A56U] | 0.07
UAACAGGGGGCCACAGCAGAAGCGUUCACGUCGCAACCCCUGUCAGAUACUGGUGUAUCUGCGAAUUCUGCUGUAUAUCUC [G36A U49A A56U] | 0.27
UAACAGGGGGCCACAGCAGAAGCGUUCACGUCGCAACCCCUGUCAGAUUCUGGUGAAUCCCCGAAUUCUGCUGUAUGUCUC [G36A U60C G61C A77G] | 0.08
UAACAGGGGGCCACAGCAGAAGCGUUCACGUCGCACCCCCUGUCUGAUUCUGGUGAAUCUCCGAGUUCUGCUGUAUAUCUC [G36C A45U G61C A65G] | 0.09
UAACAGGGGGCCACAGCAGAAGCGUUCACGUCGCACCCCCUGUCAGAUUCUGGUGAAUCUGCGAAUUCUGCUGUUUAUCUU [G36C A75U C81U] | 0.06
UAACAGGGGGCCACAGCAGAAGCGUUCACGUCGCACCCCUUGUCAGAUACUGGUGAAUCUGCGAAUUCUGCUGAAUAUCCC [G36C C40U U49A U74A U80C] | 0.11
UAACAGGGGGCCACAGCAGAAGCGUUCACGUCGCACCCCCUGUCAGAACCUGGUGAAUCUGCGAAUUCUGCUGUAUAUCUC [G36C U48A U49C] | 0.16
UAACAGGGGGCCACAGCAGAAGCGUUCACGUCGCAUCCCCUGUCAGAUUCUGGUGGAACUGCGAAUUCUGCUGUAUAUCUC [G36U A56G U58A] | 0.14
UAACAGGGGGCCACAGCAGAAGCGUUCACGUCGCAUCCCCCGUCAGAUUCUGGUGAACCUGCGAAUUCUGCUGCAUAUCUC [G36U U41C U58C U74C] | 0.27
UAACAGGGGGCCACAGCAGAAGCGUUCACGUCGCAUCCCCUGCCAGAUUCUGGUGAAUCUCCGAGUUCUGCUGUAUAUCUC [G36U U43C G61C A65G] | 0.12
UAACAGGGGGCCACAGCAGAAGCGUUCACGUCGCAUCCCCUGUCAGACUCUGGUGAAUCCGCUAAUUCUGCUGUAUAUCCC [G36U U48C U60C G63U U80C] | 0.11
UAACAGGGGGCCACAGCAGAAGCGUUCACGUCGCAUCCCCUGUCAGAUUCUGGUGAAUCGGCGAAUUCUGCUGUAUAUCAC [G36U U60G U80A] | 0.11
UAACAGGGGGCCACAGCAGAAGCGUUCACGUCGCAGACCCUGUCAGAUUCUGGUGGAUCUGCGGAUUCUGCUGUGUAUCUC [C37A A56G A64G A75G] | 0.09
UAACAGGGGGCCACAGCAGAAGCGUUCACGUCGCAGACCCUGUCAGAUUCUGGUGAAUCUGCGAUUUCAGCUGUAUCUCAC [C37A A65U U69A A77C U80A] | 0.21
UAACAGGGGGCCACAGCAGAAGCGUUCACGUCGCAGACACUGUCAGAUUCUGGUGGAUCUGCGAAUUCCGUCGUACAUCUC [C37A C39A A56G U69C C71U U72C U76C] | 0.04
UAACAGGGGGCCACAGCAGAAGCGUUCACGUCGCAGACACUGUCAGAUUCUGGUGAAUCUGCGAAUUCCGCAGUAUAUCUC [C37A C39A U69C U72A] | 0.12
UAACAGGGGGCCACAGCAGAAGCGUUCACGUCGCAGACCCUGUUAGAUUCUGGUGGAUCUGCGAAUUCUGCUGUAUAUCUC [C37A C44U A56G] | 0.16
